Assay results reported in the supplement of paper PMC10126150.
Values marked as one replicate rest on one cluster of the flow cell; about a third of the high ones do not repeat.

Test system: ATP
Experiment: switch fluorescence ratio, 500 uM ATP over buffer (Cy3 cluster intensity, sum of 5 cycles each) (fold (ratio)); higher = stronger signal-on switching upon ATP binding; sequences stand for … in TCGTCGGCAGCGTCAGATGTGTATAAGAGACAGTTTTTTTTTTTTTTTTTTTTTTTTT…TC
Conditions: aptamer strand: ATP DNA aptamer (quencher-CACCTGGGGGAGTATTGCGGAGGAAGG + anchor), 100 nM annealed; ATP concentration: 500 uM; one replicate
Outline: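 Clusters with intensities outside 100-1000 RFU were excluded. The remaining Cy3-labelled switching-strand clusters on a modified Illumina MiSeq flow-cell had been annealed to 100 nM quencher-labelled ATP aptamer and imaged in selection buffer, then after 15 min with 500 uM ATP at 22 °C, for five cycles separated by NaOH stripping and re-annealing. The fluorescence ratio, averaged per switch-domain sequence, is each cluster's summed target-cycle Cy3 intensity over its summed buffer-cycle Cy3 intensity.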
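Note: ATP exposure 15 min at 22 °C before imaging.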

Sequence | switch fluorescence ratio
CCGGCTGAAT | 1.03
CTCGGTAATA | 3.07
TAGATAGTCG | 1.02
TTTATTGCTT | 0.961
TTGGAGGAGG | 1
TCGGCTATCG | 1.01
TCGGTATCTG | 1.08
AAGCGGCGAC | 1.07
ACCAGGCGGC | 1.08
ATATCATTTA | 1.03
TTTGTTGT | 1
GCTTCCATGA | 0.982
TGGAGATAGT | 0.987
GCGCTTATT | 1.04
CTGGGTAAAT | 0.978
GAAGGAACTA | 1
CGGGCATAAG | 1.02
TGAGAAACCA | 1.05
GGCATAGCGT | 0.992
GAATTTTTGC | 0.939
AAATGTACAT | 1.04
GTCGATCTAC | 1.05
TGGGTGTCTT | 1.01

Sequence | switch fluorescence ratio
AGGCCGATAA | 1.02
ACAAGCACAG | 1.25
CAGAATCGCG | 1.01
TATTAGGCTT | 0.998
TTGACTCTG | 1.1
ACATCTCCAG | 1.04
GTAATTGGG | 1
AGAAAATAAT | 0.997
GCCCACAGCA | 0.998
TCCGTTTGGC | 1.06
GAATTATAGT | 1.02
GCAGCGCACG | 1.04
CTCATGTTCT | 1.05
CGTGGCAAGG | 1.06
TCCGGACCGC | 1
GGCGAATACC | 1.12
CTAATGCCTA | 1.02
GGAGCTTGTA | 0.907
TGGCTCTGCA | 1.19
GTTGTGTCTA | 0.981
GCCTGAAGCG | 0.99
AATAAGTCAT | 1.04
GAAGTAAGGT | 0.993

Sequence | switch fluorescence ratio
AGGTCCGTAC | 1.09
TCATAAGAGG | 0.984
GAATTTTGTT | 1.03
CGCTTGGATC | 1.06
CTACGACCAC | 1.86
CCTATTAAAG | 0.996
TCAACGTGCG | 0.983
TACGTTACAG | 1.42
TGGACGTGGA | 0.99
GTGGCAGTAG | 1.04
TCTGAAAATT | 1.05
GTTCATGT | 1.01
ACTCTCAATT | 1.21
CTTAGGAGAT | 1.01
GCTCGATACT | 1.23
TATTTAGCA | 1.03
GGGTAGTCGA | 1.05
AGCCTGTTCT | 0.971
GAACTCTTGC | 1.13
ACTATAGGTG | 1.24
TAAATGTAGC | 1.01
GGCGTTAGTG | 0.985
TGGCTTTCTG | 1.03

Sequence | switch fluorescence ratio
CGGGCGTTGC | 1.07
AAATTGGAGA | 0.978
CGCACTAGAT | 1.05
GAATTATGCA | 1.02
TGGACACATT | 1.06
TTAGAAGCGC | 0.916
GAGTTATCTG | 1.06
GGCTCCAAGT | 1.02
ACTTAGAAGC | 0.97
CACAGTGACG | 1.11
TCGAAGAAAG | 0.957
CGGCTTAATG | 0.984
CGATGGCCAC | 1.01
GAATGCTAGG | 0.984
TGCACGAGAG | 1.01
TTATGCGGGC | 1.01
ACATACGTTT | 1.4
TCATTAACCG | 0.979
ACTATTTCTG | 1.01
GAAAGCGGGA | 1.05
TACGATCGCT | 1.32
ACGTTCAATT | 1.03
TCTGGCTTTG | 1

Sequence | switch fluorescence ratio
AACTTTCGCA | 1.1
AATCGGTCCT | 1.06
TTGGTTATG | 0.989
TTTGGACGTT | 0.98
CCCTAGGGCT | 1.03
GATCAATAAC | 1.02
GGTCCAGG | 1.37
GATAGAGACA | 0.989
TACCACACCA | 1.37
TCGCGTACAT | 2.79
GCCTCACCTT | 1.08
ACTAAGGCAT | 1.03
GGGCCATTTA | 1.01
TTCGTCCGCC | 2.16
AGCTGAGATA | 0.993
GCGCTGCAGA | 0.984
CGGGTTCACG | 1.01
GCTGGAGCGA | 1.45
TTTTACAC | 1.09
GCTGGAAAA | 1.17
GTGTCTTGCC | 0.973
GGTTGGCGTA | 0.979
CATCGCCCCG | 1

Sequence | switch fluorescence ratio
ACCCAGCTAC | 2.75
TGCATAAAAT | 0.98
GATAATATGT | 1
TCCATATTGT | 0.981
TTCTGATACT | 1.03
GCGATCGGAT | 0.998
AATCATGCAC | 1.12
GGGTTTACGT | 1.01
ATCCTAGGTG | 1.17
CACTTAACAC | 1.18
CGGTCTTACG | 0.989
TCAAGCTAGA | 1.28
GTCTTCATAT | 0.978
AACGAGTTGC | 1.12
TGCATACGTT | 1.04
TCTGTGGGC | 0.935
GGTACGACTT | 1.02
ACGAATTGTG | 0.985
CTTTCCGGGT | 1
CATCATAATT | 1.01
TAATATAGCC | 0.989
CTTGGTCCCC | 1.05
GCAGTGGTTT | 0.985

Sequence | switch fluorescence ratio
CATAAAGAAC | 0.992
AGTGAATACC | 1.07
TTCGGAACTC | 1.06
TGGGTATCAT | 0.994
ACTTCGTAAC | 1.22
GACGGGGGA | 1.17
GGGGTGTTC | 1.03
TATAAGCGCA | 1.02
AGGCTAAGGC | 1.05
TCTCGCTAAA | 1.11
TTGTTACCCC | 1.13
ACTCAAGA | 1.18
ATGGTGCCTG | 1.03
CGCTATTCTT | 1.15
TTGGGCAGCT | 0.947
TCACTTGCAG | 1.03
CTATTACGTT | 1.11
AAAGGTTTA | 1.01
TCTGGTCTGC | 1.04
